Source: PMC6919601, “Identification of Plasmodium dipeptidyl aminopeptidase allosteric inhibitors by high throughput screening” (PLoS ONE, 2019)
Screen size: about 110,000 compounds; about 230 (0.21%) showed an effect of 50% or more. Some of the results follow.

biological target: DPAP1 (Plasmodium falciparum, UniProt Q8IIJ9); assay: primary screen, percent inhibition; read by cleavage of a fluorogenic dipeptide substrate; higher = more effect of the substance; design: species or system P. falciparum D10 trophozoite lysates; single well
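Further: 30 min substrate incubation versus DMSO and 10 µM JCP410 controls.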

DPAP1, sequence (Q8IIJ9 whole entry, looked up): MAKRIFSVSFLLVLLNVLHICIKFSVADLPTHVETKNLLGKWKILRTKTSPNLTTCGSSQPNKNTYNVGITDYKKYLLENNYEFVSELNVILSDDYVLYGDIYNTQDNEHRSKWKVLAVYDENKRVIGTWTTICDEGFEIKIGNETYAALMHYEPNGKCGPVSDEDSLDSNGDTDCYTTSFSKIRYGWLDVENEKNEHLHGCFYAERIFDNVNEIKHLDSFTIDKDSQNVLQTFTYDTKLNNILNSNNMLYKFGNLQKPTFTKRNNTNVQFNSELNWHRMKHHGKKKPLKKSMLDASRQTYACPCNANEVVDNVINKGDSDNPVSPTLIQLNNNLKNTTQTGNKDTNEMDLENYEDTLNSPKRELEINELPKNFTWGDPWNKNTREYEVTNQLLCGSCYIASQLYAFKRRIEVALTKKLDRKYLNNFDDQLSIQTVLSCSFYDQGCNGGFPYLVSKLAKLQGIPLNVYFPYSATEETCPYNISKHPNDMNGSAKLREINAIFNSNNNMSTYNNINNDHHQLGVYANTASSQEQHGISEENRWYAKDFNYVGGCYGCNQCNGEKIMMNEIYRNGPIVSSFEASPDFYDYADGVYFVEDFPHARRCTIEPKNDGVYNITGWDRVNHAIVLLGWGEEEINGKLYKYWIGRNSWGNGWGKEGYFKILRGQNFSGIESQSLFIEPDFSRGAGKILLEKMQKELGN

Row | Structure (SMILES) | % Inhibition @ 10 uM
1 | CCN(CC)CCCOc1cccc2ccccc12 | 3%
2 | Clc1cccc2c1Sc1ccccc1CC2N1CCNCC1 (stereo not shown) | -2.29%
3 | CC(C)NC(=O)COc1ccc(S(=O)(=O)NC(C)c2ccccc2)cc1 (stereo not shown) | -2.74%
4 | CCO/C(O)=C1\C(C)=Nc2nc(SCc3ccccc3Cl)nn2C1c1cccs1 (stereo not shown) | 4.85%
5 | CCCCNc1nc(Oc2ccc(OCC)nn2)nc(N(C)C)n1 | -3.49%
6 | CC(C)C(=O)Nc1c2c(nc3ccccc13)N(C)CC2 | -1.98%
7 | CCOc1cc(S(=O)(=O)NCc2ccccn2)c(C)cc1C | -0.469%
8 | COc1cccc(C2=NOC(C(=O)N3C(C)CCCC3C)C2)c1 (stereo not shown) | -3.45%
9 | NS(=O)(=O)c1ccc2c(c1)C(=O)c1cc(S(N)(=O)=O)ccc1-2 | 7.49%
10 | O=C1c2cccc3cccc(c23)C(=O)N1c1ccc(F)cc1 | -0.69%
11 | CCN1CCN(CC2=CC[C@H]3C[C@@H]2C3(C)C)CC1 | -0.817%
12 | O=C1N=C(Nc2ccc(F)cc2)S/C1=C\c1ccc2c(c1)OCO2 | -4.72%
13 | COc1ccc(Oc2nc3c(C)cccn3c(=O)c2/C=C(\C#N)c2nc3ccccc3n2C)cc1 | -1.43%
14 | Cn1c(=O)c2nc(N3CCN(CCO)CC3)[nH]c2n(C)c1=O | 4%
15 | CCCS(=O)(=O)N1N=C(c2ccc(Cl)cc2)CC1c1ccco1 (stereo not shown) | -0.297%
16 | Cc1ccccc1S(=O)(=O)Nc1cccc(NS(=O)(=O)c2ccccc2C)n1 | 4.41%
17 | Oc1nc(Nc2ccccc2)nc2[nH]cnc12 | 3.48%
18 | CC1CC(C)CN(c2cnn(C34CC5CC(CC(C5)C3C(=O)O)C4)c(=O)c2Cl)C1 (stereo not shown) | -0.522%
19 | Cc1ccc(/C=C(\NC(=O)c2ccccc2)C(=O)NCCN2CCOCC2)o1 | 5.9%
20 | CCOc1ccccc1C1C=C(c2ccc(OC)cc2)Nc2ncnn21 (stereo not shown) | -3.37%
21 | COC(=O)c1ccc(OCC2c3cc(OC)c(OC)cc3CCN2C(=O)/C=C/c2ccccc2)cc1 (stereo not shown) | 0.868%
22 | C=CCOc1ccc(/C=C2\SC(=O)N(CC(=O)N3CCOCC3)C2=O)cc1OC | -0.68%
23 | Cn1c(=O)[nH]c(=O)c2c1nc(SCC(=O)O)n2Cc1ccccc1 | -2.59%
24 | Cc1ccc2c(c1)C(N1CCCC1=O)CC(c1ccco1)N2 (stereo not shown) | -2.29%
25 | N#CC1=C(N)Oc2cc(O)ccc2C1c1ccccc1F (stereo not shown) | -0.413%

Row | Structure (SMILES) | % Inhibition @ 10 uM
26 | CCOc1ccc(C2N3CC4(C)CN2CC(c2ccccc2)(C3)C4=O)cc1OC (stereo not shown) | 2.05%
27 | CCSc1nc(-c2ccccc2)cc(-c2ccccc2)c1C#N | 2.47%
28 | Cc1ccc(S(=O)(=O)c2nnn3c2nc(NCCCOC(C)C)c2cc(Cl)ccc23)cc1C | -3.3%
29 | CCN1C(=O)NC(c2ccc(Cl)cc2)C(C(=O)OCCc2ccccc2)=C1C (stereo not shown) | 4.35%
30 | COc1ccc(/C=C2\S/C(=N/c3cccc(C(=O)O)c3)N(C)C2=O)c(OC)c1 | -3.03%
31 | CCOC(=O)c1c(NC(=O)c2ccccc2F)sc(C(=O)N2CCCCC2)c1C | -3.74%
32 | Cc1ccccc1NC(=O)C1C2c3ccccc3OC1(C)N=c1s/c(=C/c3cnn(C)c3C)c(=O)n12 (stereo not shown) | -3.26%
33 | CN(Cc1ccc2c(c1)OCO2)C1CCCCC1 | 0.273%
34 | O=C(c1cn(-c2ccccc2)nc1-c1ccccc1)N1CCOCC1 | 3.98%
35 | C[n+]1c(/C=C/c2ccc3c(c2)OCO3)sc2ccccc21 | -1.4%
36 | CN(Cc1ccccc1)C(=O)C1=CC(c2cccs2)=NS(=O)(=O)N1C | -1.06%
37 | O=C(NCc1ccccc1)c1ccc(CS(=O)(=O)c2ccc(Br)cc2)cc1 | 3.25%
38 | CC1(C)[C@H]2CC=C(CN3CCC(O)CC3)[C@@H]1C2 | -1.78%
39 | Cn1cc(C(=O)C(=O)NCCc2ccccc2)c2ccccc21 | 1.32%
40 | COc1cc(OC)cc(C(=O)N2CCN(C3CCCCC3)CC2)c1 | -9.7%
41 | COc1cc(/C=C(\C#N)c2nc3cc(C)ccc3[nH]2)cc(Cl)c1O | 2.36%
42 | COc1ccc2[nH]c3c(=O)n(Cc4ccc(C(=O)N5CCC(C(N)=O)CC5)cc4)c(=S)[nH]c3c2c1 | 28.2%
43 | CCN(CC)CCCNC(=O)CCCn1nc(C)c2sc3ccccc3c2c1=O | -5.12%
44 | CC(C#N)(Nc1ccccc1)c1ccccn1 (stereo not shown) | 2.5%
45 | O=C1OCc2ccccc21 | 5.58%
46 | CC(C)(C)C(=O)Nc1ccc(C(=O)Nc2cccc(O)c2)cc1 | -2.63%
47 | Cc1ccc(Nc2nc(N)nc(CSc3nc(C)cc(C)n3)n2)cc1 | 3.35%
48 | O=S(=O)(c1ccccc1)c1nnn2c1nc(NCCc1ccc(Cl)cc1)c1ccccc12 | -6.68%
49 | COc1ccc(N(CC(=O)NC(C)C)S(=O)(=O)c2ccc(C)cc2)cc1Cl | -9.26%
50 | CCOc1ccc(-c2cc(OC(=O)c3ccco3)c3c(C)oc(C)c3c(=O)c2)cc1 | -2.75%

Row | Structure (SMILES) | % Inhibition @ 10 uM
51 | CC(C)CN(CC(C)C)c1ncnc2c1cnn2-c1ccccc1 | -1.79%
52 | Cc1cc2c(c(=O)o1)C(c1ccc(Cl)cc1Cl)C(C#N)=C(N)O2 (stereo not shown) | -5.5%
53 | O=C(c1cccs1)N1CCN(c2ncccn2)CC1 | -0.95%
54 | COc1ccc(Cc2nc3c4cnn(C)c4ncn3n2)cc1OC | 2.19%
55 | COc1ccc(Br)cc1CNC(=O)Cn1ncn2c(cc3sc(C)cc32)c1=O | 4.84%
56 | Cc1nn(Cc2ccc(C(=O)NC3CCCCC3)cc2)c(C)c1Cl | 0.76%
57 | O=c1ccc2nc3ccccc3c(=O)n2[nH]1 | -6.22%
58 | CC1CCN(S(=O)(=O)c2ccc3c(ccn3CC(=O)NCc3ccccc3Cl)c2)CC1 | 1.41%
59 | CC1=C(C(=O)OC2CCC(C)CC2)C(c2ccc(C)cc2)NC(=O)N1 (stereo not shown) | 4.28%
60 | CCOc1ccccc1NC(=O)CN(c1cccc(Cl)c1)S(C)(=O)=O | -1.43%
61 | Cc1onc(-c2ccccc2Cl)c1C(=O)N(C)c1ccccc1 | 1.13%
62 | CCn1c(SCc2ccc(C(=O)O)o2)nnc1-c1ccc(Cl)cc1 | 3.54%
63 | CC(C)(Oc1ccc(-c2ccncn2)cc1)C(=O)O | -5.98%
64 | O=C(Cn1ccc2cc(S(=O)(=O)N3CCCC3)ccc21)NCCc1cccs1 | 0.00226%
65 | O=C(/C=C/c1c[nH]c2ccc(Br)cc12)c1ccncc1 | -0.807%
66 | N#CC1=C(N)SC(N)=C(C#N)C1c1c(Cl)cccc1Cl | 28.7%
67 | C=CC1(C)CCC2C(O1)c1ccccc1OC2(C)C (stereo not shown) | -7.35%
68 | COc1cccc(-c2nc(-c3ccccn3)no2)c1 | 5.23%
69 | CCC(C(=O)Nc1ncccc1C)(C(F)(F)F)C(F)(F)F | -6.06%
70 | CC(=O)/N=C(/Nc1ccc(C)c(Cl)c1)Nc1nc(C)cc(C)n1 | -2.74%
71 | O=C(C(c1ccccc1)c1ccccc1)N1CCN(Cc2ccc(F)cc2)CC1 | 3.86%
72 | CCOc1ccccc1-n1cnc2cc(C(=O)NCc3ccco3)ccc21 | -0.458%
73 | O=C(C1CCN(S(=O)(=O)c2ccccc2)CC1)N1CCC(Cc2ccccc2)CC1 | 3.16%
74 | CC[C@H](NC(=O)[C@H](CC(C)C)NC1=NC(=O)c2ccccc21)C(=O)c1nc2ccccc2o1 | 8.48%
75 | Brc1ccc(OCc2nn3c(Cc4ccccc4)nnc3s2)cc1 | -1.69%

Row | Structure (SMILES) | % Inhibition @ 10 uM
76 | COc1ccc(NC(=O)CN(C)S(=O)(=O)c2ccc(F)cc2)cc1OC | -2.29%
77 | N#Cc1c[nH]nc1NCc1cccnc1 | 4.31%
78 | Cc1cc(OCC(=O)NCCN2CCOCC2)ccc1Cl | -5.01%
79 | COc1cc(NC(=O)c2ccccc2F)nc(OC)n1 | -2.8%
80 | Cc1noc(/C=C/N(C)C)c1S(=O)(=O)N(C)Cc1ccc(F)cc1 | 8.97%
81 | COc1cc(OC)c(S(=O)(=O)N2CCOCC2)cc1C(=O)Nc1ccc(Br)cc1 | -7.14%
82 | CCCCNc1nc2cc(OC)c(OC)cc2c2nc(-c3ccccc3)nn12 | 0.981%
83 | C=CCSc1ncc(C#N)c2c1CCCC2 | -2.87%
84 | Cc1ccccc1-n1nc2c(c1NC(=O)c1ccc(Br)o1)CS(=O)(=O)C2 | -1.12%
85 | COc1ccc(C2SCC(=O)N2CCc2ccc(OC)c(OC)c2)cc1 (stereo not shown) | -0.251%
86 | Cc1ccc(N(Cc2ccco2)C(=O)C23CC4CC(CC(C4)C2)C3)cc1 | 0.565%
87 | O=C(NC1CCN(Cc2ccccc2)CC1)c1cc2c(Cl)ccc3c2n1CCO3 | 2.65%
88 | CCCNC(=O)c1cc2c(s1)CS(=O)(=O)C2 | -9.3%
89 | CCc1cccc(C)c1NC(=O)C1C2C=CC(O2)C1C(=O)O (stereo not shown) | 1.15%
90 | CCN(CC)CCNC(=O)NC1(C(F)(F)F)Oc2cc(Cl)c(Cl)cc2O1 | 2.06%
91 | Cc1cc(C(=O)NCC2CCN(CC(C)C)C2)c2c(C)nn(-c3ccccc3Cl)c2n1 (stereo not shown) | -4.97%
92 | Cc1nc(C)n(C)c(=O)c1-c1ccccc1 | 1.83%
93 | CN(C)c1ccc(/C=C/c2nnnn2-c2ccccc2)cc1 | -4.01%
94 | O=[N+]([O-])c1ccc(CSc2nc3ccccc3o2)cc1 | -4.26%
95 | CCN(CC)Cc1c(C(C)=O)c2cc(O)ccc2n1-c1ccccc1 | 0.708%
96 | CCOC(=O)C1=C(C)N=c2s/c(=C/c3ccc4c(c3)OCO4)c(=O)n2C1c1ccccc1F (stereo not shown) | 0.997%
97 | O=C(NCCCc1ccccc1)c1cc2c(Cl)ccc3c2n1CCO3 | 4.44%
98 | Fc1ccccc1N1CCN(Cc2ccccc2)CC1 | -3.71%
99 | CC(NC(=O)Cn1nc(-c2ccc(Cl)cc2)ccc1=O)c1ccccc1 (stereo not shown) | 1.62%
100 | O=C(CN(c1ccccc1F)S(=O)(=O)c1ccccc1)N1CCOCC1 | -3.92%
